Measurements: PubChem BioAssay AID1030 (National Center for Advancing Translational Sciences (NCATS), 2008)
Among all 220,000 compounds or so, about 16,000 (7.3%) were called active. This list was built around the results that the source calls inconclusive (neither active nor inactive); the mix of calls is not that of the screen. Calls come from the whole dose curve; as a rule, active = well fitted inhibition curve with a large enough effect (not every such curve was filed as active); inconclusive = small, poorly fitted or top-dose-only effect, or another doubt; inactive = no such curve, though single readings can be large or run the other way. No potency is given beside an inconclusive call; the fits are too rough.

Molecular target: Aldehyde dehydrogenase 1A1 (Homo sapiens) (UniProt P00352)
Assay: qHTS Assay for Inhibitors of Aldehyde Dehydrogenase 1 (ALDH1A1);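 for activity, negative = inhibition: plate controls were no enzyme wells and a reference inhibitor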
Settings: Purified ALDH1A1, NADH fluorescence, propionaldehyde substrate; series mostly up to 75.3 µM; activity, negative = inhibition: at the top concentration
Potency is the fitted concentration of half-maximal effect; tags give direction and shape of the fitted curve.

Sequence of UniProt P00352 (P00352 whole entry, looked up): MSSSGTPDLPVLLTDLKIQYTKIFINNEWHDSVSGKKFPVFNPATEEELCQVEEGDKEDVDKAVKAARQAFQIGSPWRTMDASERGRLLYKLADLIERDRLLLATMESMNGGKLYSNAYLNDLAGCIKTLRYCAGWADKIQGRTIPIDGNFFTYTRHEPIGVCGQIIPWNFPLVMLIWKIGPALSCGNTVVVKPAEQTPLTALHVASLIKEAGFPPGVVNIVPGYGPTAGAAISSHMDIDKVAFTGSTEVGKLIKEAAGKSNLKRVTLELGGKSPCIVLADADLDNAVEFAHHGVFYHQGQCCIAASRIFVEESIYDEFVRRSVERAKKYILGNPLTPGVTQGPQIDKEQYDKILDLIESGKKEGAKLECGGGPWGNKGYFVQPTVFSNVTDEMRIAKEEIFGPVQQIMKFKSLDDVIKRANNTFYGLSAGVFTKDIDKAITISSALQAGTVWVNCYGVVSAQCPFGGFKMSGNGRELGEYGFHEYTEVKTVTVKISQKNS

Compound | Potency | activity, negative = inhibition
COc1ccc(N2CCN(C(=S)NC(=O)c3cccs3)CC2)c([N+](=O)[O-])c1 | inconclusive [inhibitor, single point] | 
O=C(c1ccc(Cl)cc1)N1CCc2c([nH]c3ccccc23)C1C(F)(F)F (stereo not given) | inconclusive [inhibitor, single point] | 
COCc1nnc(NC(=O)c2ccc3c(c2)OCO3)s1 | inconclusive [inhibitor, single point] | 
O=C(Cc1cccs1)Nc1nc2c(s1)CCCC2 | inconclusive [inhibitor, single point] | 
Cc1nn(-c2ccccc2)c(Cl)c1C1C(C#N)=C(N)Oc2n[nH]c(C)c21 (stereo not given) | inconclusive [inhibitor, single point] | 
COc1ccccc1N(CC(=O)Nc1cccnc1)S(=O)(=O)c1ccccc1 | inconclusive [inhibitor, single point] | 
N#C/C(=C(/O)COc1ccccc1)c1nnc2n1CCCCC2 | active: 7.94 µM | 
COc1ccc(-c2c(S(=O)(=O)c3ccccc3)cnn2-c2ccccc2)cc1 | inconclusive [inhibitor, single point] | 
Cc1cc(C(=O)Nn2cnc3ccccc3c2=O)ccc1[N+](=O)[O-] | inconclusive [inhibitor, single point] | 
CC(=O)c1ccc(-c2ccc(-c3cc(=O)oc4c(C(C)C)ccc(C)c34)cc2)cc1 |  | inactive: 10.5%
CCOC(=O)c1cnc2c(OC)cccc2c1Nc1ccc2c(c1)OCCO2 | inconclusive [inhibitor, single point] | 
Nc1csnc1C(=O)O |  | inactive: 2.65%
COc1ccc(-c2nc(CS(=O)CC(=O)NCCC3=CCCCC3)c(C)o2)cc1 (stereo not given) | inconclusive [inhibitor, single point] | 
CC1=C(C(=O)Nc2ccc(C)cc2C)C(c2ccc(C)o2)NC(=S)N1 (stereo not given) | inconclusive [inhibitor, partial curve] | 
COCCn1c(SCC(=O)Nc2nnc(C)s2)nnc1-c1cc2ccccc2cc1O | inconclusive [inhibitor, partial curve, poor fit] | 
CSc1nc2nccc(-c3ccc4c(c3)OCO4)n2n1 | inconclusive [inhibitor, single point] | 
Cc1noc(C)c1C(=O)NCc1ccccc1 |  | inactive: 5.71%
CCN=C1SC(CC(=O)NCCc2ccc(OC)c(OC)c2)C(=O)N1CC (stereo not given) | active: 20 µM | 
COC(=O)c1ccc(-c2ncc(-c3cccc4ccccc34)o2)cc1 | inconclusive [inhibitor, partial curve] | 
COc1ccc(C2Nc3ccccc3C(=O)N2Cc2ccccc2)cc1COc1ccccn1 (stereo not given) | inconclusive [inhibitor, partial curve] | 
Cc1ccc2c(C)c(C(=O)Nc3c(C)n(C)n(-c4ccccc4)c3=O)oc2c1C |  | inactive: 7.21%
CC1(C)CC(=O)C(C=Nc2ccc(O)c(N=CC3=C(O)CC(C)(C)CC3=O)c2)=C(O)C1 | active: 1.12 µM | 
Nc1nc2c(C(=O)NCc3cccs3)nnn2c2cccc(Cl)c12 |  | inactive: -15.7% [at 13.5 µM]
O=C(NCc1ccccc1Cl)C1CCN(S(=O)(=O)N2CCCCCC2)CC1 | inconclusive [inhibitor, partial curve] | 
O=C(Nc1ccccc1C(=O)N1CCCCCC1)c1ccccc1Cl |  | inactive: 0.473%

Compound | Potency | activity, negative = inhibition
N#Cc1c(NC(=O)CSc2nnc(-c3ccccc3O)n2-c2ccccc2)sc2c1CCCC2 | inconclusive [inhibitor, full curve] | 
Cc1[nH]c2ccccc2c1NC(=O)CN1CCN(Cc2ccc3c(c2)OCO3)CC1 |  | inactive: -0.0658%
CCOC(=O)C1CCCN(c2oc(-c3ccc(F)cc3)nc2C#N)C1 (stereo not given) | inconclusive [inhibitor, single point] | 
COC(=O)c1cnn2c(C(F)(F)F)cc(-c3ccco3)nc12 | inconclusive [inhibitor, partial curve] | 
COc1ccc(C(C)=O)cc1COc1cc(C)c(Cl)c(C)c1 |  | inactive: 1.02%
CCOC(=O)C(=O)c1c(-c2ccccc2)nc2ccccn12 | inconclusive [inhibitor, partial curve] | 
Cc1ccc(-c2cc3nc(-c4ccccc4)cc(N4CCC5(CC4)OCCO5)n3n2)cc1 | inconclusive [inhibitor, partial curve] | 
Fc1ccccc1COc1cccc(/C=N/n2cnnc2)c1 |  | inactive: 0.793%
Cc1ccc(NC(=O)c2cc(N3C(=O)CCC3=O)ccc2N2CCOCC2)cc1 |  | inactive: -0.93%
COc1cc(OC)c2c(-c3cccc(-c4ccc(CO)cc4)c3)cc(=O)oc2c1 |  | inactive: 3%
CC(=O)NC(NC(=S)Nc1c(C)n(C)n(-c2ccccc2)c1=O)C(Cl)(Cl)Cl (stereo not given) |  | inactive: -0.126%
O=C(Nc1ccc(Cl)c(Cl)c1)Nc1ccccc1C(=O)O | inconclusive [inhibitor, partial curve] | 
Cc1cccc(C)c1NC(=O)C(c1ccccc1)N1CCN(C(=O)c2ccco2)CC1 (stereo not given) | active: 25.1 µM | 
CC(CCc1ccccc1)NCC(O)COc1ccccc1 (stereo not given) | inconclusive [inhibitor, partial curve] | 
O=[N+]([O-])c1ccc(/C=N/N=C/c2ccc([N+](=O)[O-])o2)o1 | inconclusive [inhibitor, single point] | 
COc1ccccc1N1C(=O)CC(Sc2ncccc2C(=O)O)C1=O (stereo not given) |  | inactive: 4.77%
CCC(CC)c1nnc(NC(=O)c2ccco2)s1 | inconclusive [inhibitor, single point] | 
COc1ccc2c(c1)C(=O)[C@H](OC(=O)NS(=O)(=O)c1ccc(F)cc1)[C@@H](c1ccc(OC)c(Br)c1)O2 |  | inactive: 9.06%
CN1CCN(NC(=O)c2cc([N+](=O)[O-])cc([N+](=O)[O-])c2)CC1 |  | inactive: 0.376%
Cc1cc(C)c2nc(NC(=O)c3ccc(OCC4CCCO4)cc3)sc2c1 (stereo not given) | inconclusive [inhibitor, single point] | 
Cc1cc(Cl)n2c(nc3ccccc32)c1C#N | inconclusive [inhibitor, partial curve] | 
O=C(c1c(Cl)nc2sccn12)N(C(=O)c1c(Cl)nc2sccn12)c1ccc(Cl)cn1 | inconclusive [inhibitor, single point] | 
C=CCn1c(CCc2ccc(OC(C)C)cc2)n[nH]c1=S |  | inactive: -5.12%
Cc1ccc(NC(=S)NNc2ncc(C(F)(F)F)cc2Cl)cc1 | active: 10 µM | 
Cc1cccc2sc(NC(=O)[C@H](C)N3C(=O)C4CC=CCC4C3=O)nc12 (stereo not given in full) | active: 14.1 µM | 

Compound | Potency | activity, negative = inhibition
O=C1CC(N2CCN(S(=O)(=O)c3cccc(C(F)(F)F)c3)CC2)C(=O)N1Cc1ccccc1 (stereo not given) | inconclusive [inhibitor, single point] | 
CC(Sc1n[nH]c(N)n1)C(=O)Nc1ccc(Cl)cn1 (stereo not given) |  | inactive: 4.51%
C=CCNC(=O)/C=C/c1c(F)cccc1Cl |  | inactive: -8.56%
CCCc1nc(NC(C)=O)c(C#N)c(-c2ccco2)c1CC | inconclusive [inhibitor, single point] | 
Cn1c(=O)c2c(nc(N3CCNCC3)n2Cc2cccc3ccccc23)n(C)c1=O | inconclusive [inhibitor, single point] | 
CNc1nn(-c2cccc(Cl)c2)nc1N | active: 2 µM | 
O=C(c1ccccc1Cl)N(Cc1ccccc1F)N1C(=O)CCCC1=O |  | inactive: 7.83%
COc1ccc2oc(=O)c(C(=O)N3CCN(c4ccc(F)cc4)CC3)cc2c1 | inconclusive [inhibitor, single point] | 
COc1cc(C2=NOC(C(=O)N3CCCc4ccccc43)C2)cc(OC)c1OC (stereo not given) | inconclusive [inhibitor, partial curve] | 
c1ccc(CSc2ccc(-c3ccccn3)nn2)nc1 |  | inactive: -6.63%
COc1cc([N+](=O)[O-])ccc1NC(=S)NCc1ccccn1 | active: 17.8 µM | 
CCCS(=O)(=O)N1CCN(Cc2c[nH]c3ccccc23)CC1 | inconclusive [inhibitor, single point] | 
CC(=O)c1c(C(C)=O)c(C)n(-c2cccc3cccnc23)c1C | inconclusive [inhibitor, single point] | 
CCOCc1nnc(NC(=O)c2cc(Cl)ccc2OC)s1 | inconclusive [inhibitor, partial curve] | 
Cc1ccccc1-n1ncc(C(C)NC(=O)c2ccco2)c1C (stereo not given) |  | inactive: -4.24%
COc1ncc2nc(-c3ccc(F)cc3)c(=O)n(Cc3cccs3)c2n1 | inconclusive [inhibitor, single point] | 
O=C(Nc1nc(-c2ccccn2)cs1)c1cc(Cl)ccc1[N+](=O)[O-] | active: 10 µM | 
CCOc1ccccc1C(=O)Nc1nnc(C(C)C)s1 | active: 1.26 µM | 
O=C1c2ccccc2C(=O)N1CCCCn1c(=O)oc2ccccc21 | inconclusive [inhibitor, single point] | 
COc1ccc(-n2cnc3cc(NS(=O)(=O)c4ccccc4)ccc32)cc1 | inconclusive [inhibitor, single point] | 
CCOc1ccc2nc(COC(=O)c3ccco3)c(C(C)=O)[n+]([O-])c2c1 | inconclusive [inhibitor, single point] | 
CCOc1ccc(CCNC(=O)CSc2nnnn2C)cc1OCC |  | inactive: 0.0501%
O=C1CS/C(=C\[N+](=O)[O-])N1c1ccccc1 | active: 5.01 µM | 
Cc1oc(-c2ccccc2Cl)[n+]([O-])c1C | active: 22.4 µM | 
N#Cc1c(C(F)(F)F)cc(-c2cccs2)nc1SCc1cccnc1 | inconclusive [inhibitor, partial curve] | 
